Among the data in a collection of fitness landscapes (doi:10.1126/science.1257360) are enrichment ratio values, retold here.

The other results are listed elsewhere or left out.

First the molecules themselves.
B1: PhoQ; a variant is named by its letters at X, in order, P23837 (parent)
chain: MKKLLRLFFPLSLRVRFLLATAAVVLVLSLAYGMVALIGYSVSFDKTTFRLLRGESNLFYTLAKWENNKLHVELPENIDKQSPTMTLIYDENGQLLWAQRDVPWLMKMIQPDWLKSNGFHEIEADVNDTSLLLSGDHSIQQQLQEVREDDDDAEMTHSVAVNVYPATSRMPKLTIVVVDTIPVELKSSYMVWSWFIYVLSANLLLVIPLLWVAAWWSLRPIEALAKEVRELEEHNRELLNPATTRELTSLVRNLNRLLKSERERYDKYRTTLTDLTHSLKTPLXXLQXXLRSLRSEKMSVSDAEPVMLEQISRISQQIGYYLHRASMRGGTLLSRELHPVAPLLDNLTSALNKVYQRKGVNISLDISPEISFVGEQNDFVEVMGNVLDNACKYCLEFVEISARQTDEHLYIVVEDDGPGIPLSKREVIFDRGQRVDTLRPGQGVGLAVAREITEQYEGKIVAGESMLGGARMEVIFGRQHSAPKDE

The variants in this experiment derive from B1. As to the kind of experiment: enrichment ratio after two sorts for PhoP signalling (ratio (wild type AVST 3.29)); higher = more functional. To be noted: with PhoP (E. coli).
For LGMD, the enrichment ratio was at most 0.25.

As to DGAC, the enrichment ratio is at most 0.25. As to DSIR, the enrichment ratio was at most 0.25. As for DLPT, the enrichment ratio was at most 0.25. To YFST belongs at most 0.25; to WQYD, at most 0.25; to DRFV, at most 0.25.

With DAGV, the enrichment ratio was at most 0.25. Take QCDI: the enrichment ratio is at most 0.25. With WLCD the figure was at most 0.25. To GPQP belongs at most 0.25; to YLKM, at most 0.25. With NRMN the figure was at most 0.25; with QHSK, at most 0.25. Regarding IGAF, the enrichment ratio was at most 0.25. With PPKP the figure was at most 0.25; with YLMM, at most 0.25; with LCYY, at most 0.25.

For LWID, the enrichment ratio is at most 0.25.

As to WRDK, the enrichment ratio is at most 0.25.

For the variant NLDK, the enrichment ratio was at most 0.25. To IGGY belongs at most 0.25; to WAWK, at most 0.25; to DPKV, at most 0.25. For QWCH, the enrichment ratio is at most 0.25.

In the case of MCAD, the enrichment ratio was at most 0.25. Consider ASLL, for which the enrichment ratio amounted to 19.9. For VREI, the enrichment ratio is at most 0.25. To NSIM belongs at most 0.25; to HNMA, at most 0.25. With PLEE the figure was at most 0.25. For VQMC, the enrichment ratio was at most 0.25. With FFRG the figure was at most 0.25; with GVCF, 25; with FSTC, at most 0.25.

In the case of DFYC, the enrichment ratio was at most 0.25. Regarding VMGA, the enrichment ratio is at most 0.25. With SRFR the figure was at most 0.25; with HWWE, at most 0.25; with WDDT, at most 0.25. Turning to VCKW, the enrichment ratio is at most 0.25. To HSDL belongs at most 0.25; to VRYD, at most 0.25. With NDTV the figure was 5.54; with QERQ, at most 0.25. To MHQM belongs at most 0.25.

With NYSM, the enrichment ratio was at most 0.25. With KSWL the figure was at most 0.25; with IRKT, at most 0.25; with HWQA, at most 0.25.

For the variant DRSE, the enrichment ratio is at most 0.25.

As for GNIV, the enrichment ratio amounted to 9.65. With PHGT the figure was at most 0.25; with PQFR, at most 0.25; with SKWT, at most 0.25. To LEWH belongs 4.66; to SEED, at most 0.25. With WKML the figure was at most 0.25; with ELLP, at most 0.25; with FNHY, at most 0.25.

With MAKY, the enrichment ratio was at most 0.25.

On to VDGT, for which the enrichment ratio is at most 0.25. As to TVGY, the enrichment ratio amounted to 10.4. With YLLE, the enrichment ratio was at most 0.25. With PLKG the figure was at most 0.25; with NIPL, at most 0.25; with TDRT, at most 0.25. To IIDW belongs at most 0.25; to HTVP, at most 0.25; to LEKH, at most 0.25. Turning to RYPQ, the enrichment ratio is at most 0.25. In the case of RNKS, the enrichment ratio was at most 0.25. With KHAP the figure was at most 0.25. On to YECN, for which the enrichment ratio was at most 0.25. To RIAT belongs at most 0.25. With FPIE the figure was at most 0.25; with IHCR, at most 0.25; with RYDF, at most 0.25.

MSSC: the enrichment ratio came out at 5.54.

As for GTAS, the enrichment ratio is at most 0.25. With VDKY the figure was at most 0.25; with AQPS, at most 0.25. To YKET belongs at most 0.25. In the case of WFDS, the enrichment ratio is at most 0.25. For SSYM, the enrichment ratio came out at 4.79.

As to MHQR, the enrichment ratio is at most 0.25. Take PRFG: the enrichment ratio is at most 0.25.

As to TKFM, the enrichment ratio came out at 9.89. Take GDCY: the enrichment ratio came out at 7.84. To TQYW belongs at most 0.25; to RMDA, at most 0.25.

As to PQMR, the enrichment ratio was at most 0.25. To AFRN belongs at most 0.25; to HDLI, at most 0.25; to FEMM, 5.97. Turning to SQMR, the enrichment ratio is at most 0.25. With MYWL the figure was at most 0.25; with GQTV, 4.75; with MRGG, at most 0.25.

Regarding WGPL, the enrichment ratio was at most 0.25. For TLAK, the enrichment ratio was at most 0.25. Consider SPQL, for which the enrichment ratio was at most 0.25. To PAQN belongs at most 0.25; to GHEA, at most 0.25; to QHDL, 10.4.

As for NQHY, the enrichment ratio was at most 0.25. Consider VYSM, for which the enrichment ratio was at most 0.25.

For the variant HCDF, the enrichment ratio is at most 0.25.

As for MTNW, the enrichment ratio is at most 0.25.

On to VFQD, for which the enrichment ratio was at most 0.25. On to VHAD, for which the enrichment ratio was at most 0.25. Consider SGMQ, for which the enrichment ratio turned out to be 15.4. With MGGC the figure was 6.75; with KCWW, at most 0.25; with AWVA, at most 0.25. With EKAC the figure was at most 0.25. Turning to GPMI, the enrichment ratio was at most 0.25. WDES: the enrichment ratio was at most 0.25. To VKTK belongs at most 0.25; to IMSP, at most 0.25. Turning to QIAQ, the enrichment ratio was at most 0.25. With FTCL the figure was 9.73; with FPYL, at most 0.25. With TCQH the figure was at most 0.25; with NPTP, at most 0.25; with PDYD, at most 0.25. AQEH: the enrichment ratio was at most 0.25. To QYWI belongs at most 0.25; to TDAM, 17.8; to MGKH, at most 0.25.

Consider PYTV, for which the enrichment ratio was at most 0.25. With FEDK the figure was at most 0.25. For EVCG, the enrichment ratio was at most 0.25. Turning to ENRF, the enrichment ratio was at most 0.25. With DKCM the figure was at most 0.25; with RIGT, at most 0.25; with MQMD, at most 0.25. To NMPI belongs at most 0.25. In the case of LCFA, the enrichment ratio was at most 0.25. For WEGK, the enrichment ratio was at most 0.25. Regarding GDKA, the enrichment ratio is at most 0.25. Regarding AWPD, the enrichment ratio was at most 0.25. With SFPF the figure was at most 0.25; with MMYH, at most 0.25. With LLCS the figure was at most 0.25.

Take NDTK: the enrichment ratio is at most 0.25.

Regarding FNSA, the enrichment ratio was at most 0.25.

On to SWLM, for which the enrichment ratio was at most 0.25. Turning to GWIT, the enrichment ratio was at most 0.25. For the variant VCVW, the enrichment ratio is at most 0.25.

As for FQIV, the enrichment ratio is at most 0.25. For the variant SGKE, the enrichment ratio was at most 0.25. To MRMP belongs at most 0.25.
